The values that follow come from PMC4336329 (PLoS ONE, 2015).

Structures are written as SMILES. In all, about 310,000 compounds went through this assay and about 2,200 (0.71%) showed an effect of 50% or more. The effect is printed as a negative number. The list shows a part of the results.

human ether-à-go-go-related gene (hERG) potassium channel, sequence (Q12809 whole entry, looked up): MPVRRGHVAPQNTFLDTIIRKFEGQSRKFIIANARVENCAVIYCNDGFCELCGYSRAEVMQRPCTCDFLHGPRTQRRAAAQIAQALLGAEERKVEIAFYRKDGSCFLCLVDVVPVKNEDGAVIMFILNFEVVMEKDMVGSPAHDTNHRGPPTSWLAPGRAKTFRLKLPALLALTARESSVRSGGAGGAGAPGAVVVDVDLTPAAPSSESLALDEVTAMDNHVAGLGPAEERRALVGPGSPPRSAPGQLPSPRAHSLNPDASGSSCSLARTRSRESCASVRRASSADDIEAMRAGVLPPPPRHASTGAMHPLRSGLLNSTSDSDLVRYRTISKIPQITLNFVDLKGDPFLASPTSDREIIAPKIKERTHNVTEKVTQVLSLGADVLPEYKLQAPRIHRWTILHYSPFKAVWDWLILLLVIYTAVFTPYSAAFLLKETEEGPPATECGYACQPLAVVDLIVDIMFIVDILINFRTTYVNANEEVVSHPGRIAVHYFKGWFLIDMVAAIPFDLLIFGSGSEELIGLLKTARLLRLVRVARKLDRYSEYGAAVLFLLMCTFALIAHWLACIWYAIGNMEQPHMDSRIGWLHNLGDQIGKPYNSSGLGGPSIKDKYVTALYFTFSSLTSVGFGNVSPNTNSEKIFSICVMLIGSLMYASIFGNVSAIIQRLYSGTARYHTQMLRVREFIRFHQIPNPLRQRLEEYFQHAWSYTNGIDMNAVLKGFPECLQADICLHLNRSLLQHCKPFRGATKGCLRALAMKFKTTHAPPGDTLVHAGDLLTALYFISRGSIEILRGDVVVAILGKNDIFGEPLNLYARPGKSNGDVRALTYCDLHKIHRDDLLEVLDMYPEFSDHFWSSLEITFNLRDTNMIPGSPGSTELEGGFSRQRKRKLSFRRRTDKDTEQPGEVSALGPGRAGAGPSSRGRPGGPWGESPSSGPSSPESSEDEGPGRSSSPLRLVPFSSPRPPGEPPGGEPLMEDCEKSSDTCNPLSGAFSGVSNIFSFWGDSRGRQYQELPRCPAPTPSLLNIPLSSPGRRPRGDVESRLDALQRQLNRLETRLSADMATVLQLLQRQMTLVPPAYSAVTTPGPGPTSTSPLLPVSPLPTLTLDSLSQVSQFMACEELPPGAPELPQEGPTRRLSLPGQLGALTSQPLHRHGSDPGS

The test has as its target human ether-à-go-go-related gene (hERG) potassium channel (human, UniProt Q12809). The test can be described thus: primary screen, population patch clamp on CHO cells stably expressing hERG. The protocol: Briefly, Chinese hamster ovary (CHO) cells stably expressing the hERG channel were dislodged from tissue culture flasks and dispensed into PPC plates. […] During the recording, background leak currents were estimated by a 100 ms step to -80 mV from an initial holding potential of -70 mV and subtracted from the subsequent current measurement. The campaign was conducted in two phases using slight differences in recording protocol. In the first phase, the initial voltage pulse used a 100 ms step to -30 mV from a holding potential of -70 mV, a 2 s conditioning step to +25 mV, and a 2 s test step to -30 mV. During the second phase of the screen, the potential during the conditioning step was raised to +45 mV. In both phases of the campaign, a secondary voltage pulse was applied using the same parameters as the second phase initial pulse. The initial and secondary pulses were applied in the absence of compound, and upon application of 1 μM and 10 μM test concentrations. Small molecule effects on hERG current density were quantified by […].
`Cc1ccccc1OCC(=O)OCC(=O)c1ccc(-c2ccccc2)cc1`: the “hERG current change (%, negative = inhibition) at 1uM” value worked out at 10.9%. To `COc1ccc(N2CCN(C(=O)CSc3nnc4nc(C)cc(C)n34)CC2)cc1` belongs -2.98%; to `Cc1ccc(Nc2ccc(-n3ccnc3)nn2)cc1C`, 1.01%. To `O=C(COc1ccc(Cl)cc1Cl)NCCC1=CCCCC1` belongs 2.04%. To `CC(O)COc1ccc(/C(=N/O)c2ccccc2)cc1` (stereo not drawn) belongs 18.4%; to `CCN(C(=O)CSc1nnc(-c2ccco2)n1Cc1ccccc1)C1CCS(=O)(=O)C1` (stereo not drawn), 6.22%; to `COC(=O)C(C)Sc1nc2c(cnn2-c2ccccc2)c(=O)[nH]1` (stereo not drawn), 12.9%. `Cc1nc2ccccc2n1CC(O)COC1CCCCC1` (stereo not drawn): the “hERG current change (%, negative = inhibition) at 1uM” value was 2.56%.

For the compound `COc1ccc(-c2cc(C(=O)OC(C)C(=O)Nc3c(C)n(C)n(-c4ccccc4)c3=O)c3ccccc3n2)cc1` (stereo not drawn), the “hERG current change (%, negative = inhibition) at 1uM” value is -3.79%. Under `CC(C)(C)c1ccc(C(=O)Nc2nnc(C3=COCCO3)o2)cc1` stands 18%; under `COc1ccc(N2CCN(C(=O)CCNS(=O)(=O)c3cc(Br)cnc3N)CC2)cc1`, 2.98%. Under `CCn1cnc2sc(C(=O)N3CCN(Cc4ccc5c(c4)OCO5)CC3)c(C)c2c1=O` stands 10.5%. To `Cc1cc(C)cc(OC(=O)C23CCC(C)(C(=O)O2)C3(C)C)c1` (stereo not drawn) belongs 5.55%; to `Cc1cc(C)n2nc(SCc3cc(=O)oc4cc(O)ccc34)nc2n1`, 4.5%; to `COc1cc(CNC2CCCCC2OC)cc(OC)c1OC` (stereo not drawn), 12.5%.

On to `N#Cc1ccc(NC(=S)NC(=O)CCc2ccc(S(=O)(=O)N3CCOCC3)cc2)cc1`, for which the “hERG current change (%, negative = inhibition) at 1uM” value stood at 17.7%. Under `COC(=O)c1ccc(COC(=O)CNC(=O)CNC(=O)c2ccc(C)cc2)cc1` stands 8.41%; under `Cc1ccc(-n2nnnc2SCC(N)=O)c(C)c1`, 17.2%; under `COc1ccc2c(c1)CC/C2=N\OC(=O)c1ccccc1C`, 8.06%.

For the compound `Cc1cc(C)c(NC(=S)N(CCCN2CCN(C)CC2)Cc2cccs2)c(C)c1`, the “hERG current change (%, negative = inhibition) at 1uM” value is recorded as -2.21%. Consider `CN(Cc1ccccc1)Cc1nc2c(c(=O)n(C)c(=O)n2C)n1Cc1ccccc1Cl`, for which the “hERG current change (%, negative = inhibition) at 1uM” value was -5.53%.

With `Cc1ccccc1OCC(=O)N/N=C/C=C/c1ccccc1`, the “hERG current change (%, negative = inhibition) at 1uM” value worked out at 12.5%.

In the case of `O=C(Nc1c2c(nn1-c1ccc(F)cc1)CS(=O)C2)C12CC3CC(CC(C3)C1)C2` (stereo not drawn), the “hERG current change (%, negative = inhibition) at 1uM” value came to 21.3%. To `O=C(Cn1cccc(C(F)(F)F)c1=O)c1ccc(Cl)cc1` belongs 9.28%; to `COc1ccccc1/C=C/C=N/N1CCN(c2ccccn2)CC1`, 10.1%.

As for `NC(=S)NNC(=O)c1cccc(Br)c1`, the “hERG current change (%, negative = inhibition) at 1uM” value worked out at 1.45%. For the compound `Cc1ccc(NC(=O)C2CCCN(S(=O)(=O)c3c(C)noc3C)C2)c(Br)c1` (stereo not drawn), the “hERG current change (%, negative = inhibition) at 1uM” value came out at 22.5%. To `CCN1CCN(c2nc3c(c(=O)n(C)c(=O)n3C)n2CCSc2nccc(C)n2)CC1` belongs 6.84%; to `CCOC(=O)C(NC(C)=O)(Nc1ccc(F)cc1)C(F)(F)F` (stereo not drawn), 0.534%; to `C=CCn1c(O)c(C=Nc2ccc(F)cc2)c(=O)[nH]c1=O`, 12.4%.

Consider `COc1cc(C(=O)Nc2ccc(-c3nnc(-c4ccco4)o3)cc2)cc(OC)c1OC`, for which the “hERG current change (%, negative = inhibition) at 1uM” value is reported as 4.71%. To `O=C(Nc1ccc2nc(-c3cccs3)c(-c3cccs3)nc2c1)N1CCOCC1` belongs 7.6%. Under `COc1cc(NC(=O)CSc2nc3ncnc(N)c3[nH]2)c(C(=O)O)cc1OC` stands 15.3%; under `CCOP(=O)(OCC)C(O)c1ccc(Br)cc1` (stereo not drawn), 13%; under `Cc1ccc(NC(=O)C(C)S)cc1` (stereo not drawn), 12.4%. To `CCOC(=O)C1=C(C)N[C@@]2(O)c3ccccc3C(=O)[C@@]12O` belongs 7.65%; to `Cc1csc(SCC(=O)NC(=O)NC(C)C)n1`, 11.6%.

In the case of `NNc1nc2ccccc2c(=O)n1Cc1ccccc1`, the “hERG current change (%, negative = inhibition) at 1uM” value came to 14.6%. To `Cc1ccc(C(C(=O)NCc2ccco2)N(C(=O)CNC(=O)c2cccs2)c2c(C)cc(C)cc2C)cc1` (stereo not drawn) belongs 3.63%; to `Cc1ccc(NC(=O)c2ccnc(C(C)(C)C)c2)cc1`, -2.03%.

Turning to `COc1cc2c(cc1OC)C(c1ccccc1O)NCC2` (stereo not drawn), the “hERG current change (%, negative = inhibition) at 1uM” value was 10.8%. To `CCOC(=O)C1CCN(S(=O)(=O)c2ccc3c(c2)CC(C)N3C(=O)C2CCC2)CC1` (stereo not drawn) belongs 13.7%; to `CCN(c1ccccc1)S(=O)(=O)c1ccc(Cl)c(NC(=O)COC(=O)c2ccc[n+]([O-])c2)c1`, -1.23%; to `Cc1c(Cl)cccc1NC(=O)CCCn1nc([N+](=O)[O-])cc1C`, 6.73%. Under `Cc1ccc(OCC(=O)N/N=C/c2cc([N+](=O)[O-])ccc2N2CCCCC2)cc1` stands -8.13%.
